Experimental data taken from publication PMC9554868.
Results are given in words; binding and its absence hold for the method and conditions named. Binding seen in cells or lysates may run through a third protein. Some results given as binding are weak or reduced against the parent protein; the word gives no strength. Tags and fused reporters may be left off the sequences shown.

Assays:
Assay in all cases: co-IP
[1] = biological target: RING finger protein 26 (RNF26), wild type, Myc-FLAG-tagged (UniProt Q9BY78)
[2] = biological target: Zaire ebolavirus (EBOV) glycoprotein GP1,2 (Zaire ebolavirus (EBOV)) (UniProt Q05320)
[3] = biological target: EBOV nonstructural soluble GP (sGP) (Zaire ebolavirus (EBOV)) (UniProt P60170)

Measured: binding

B1: calnexin (CANX), HA-tagged (protein, UniProt P27824 21-592)
chain: HDGHDDDVIDIEDDLDDVIEEVEDSKPDTTAPPSSPKVTYKAPVPTGEVYFADSFDRGTLSGWILSKAKKDDTDDEIAKYDGKWEVEEMKESKLPGDKGLVLMSRAKHHAISAKLNKPFLFDTKPLIVQYEVNFQNGIECGGAYVKLLSKTPELNLDQFHDKTPYTIMFGPDKCGEDYKLHFIFRHKNPKTGIYEEKHAKRPDADLKTYFTDKKTHLYTLILNPDNSFEILVDQSVVNSGNLLNDMTPPVNPSREIEDPEDRKPEDWDERPKIPDPEAVKPDDWDEDAPAKIPDEEATKPEGWLDDEPEYVPDPDAEKPEDWDEDMDGEWEAPQIANPRCESAPGCGVWQRPVIDNPNYKGKWKPPMIDNPSYQGIWKPRKIPNPDFFEDLEPFRMTPFSAIGLELWSMTSDIFFDNFIICADRRIVDDWANDGWGLKKAADGAAEPGVVGQMIEAAEERPWLWVVYILTVALPVFLVILFCCSGKKQTSGMEYKKTDAPQPDVKEEEEEKEEEKDKGDEEEEGEEKLEEKQKSDAEEDGGTVSQEEEDRKPKAEEDEILNRSPRNRKPRRE
binds: all assays above
